Consider 48 compounds from PubChem BioAssay AID1508623 (National Center for Advancing Translational Sciences (NCATS), 2021).

In all, about 48,000 compounds went through this assay and about 450 (0.94%) were called active. Roughly 19% stayed inconclusive and do not appear here. Calls follow the shape of the dose curve; as a rule, active = well fitted inhibition curve with a large enough effect; inconclusive = small, poorly fitted or top-dose-only effect; inactive = no such curve, though single readings can be large or run the other way. The list shows a part of the results.

This test in a line: Primary qHTS for Identification of Small Molecule Inhibitors of Huntingtin Promoter Activity. Also: nearly all actives have a fitted effect of over 50% in size. Particulars: HEK293 HTT promoter firefly luciferase reporter (activity 0% = vehicle and -100% = no light), 24 h; series mostly up to 57.5 µM; activity change, negative = inhibition: at the top concentration. The essentials:
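Luminescence was read after Dual-Glo reagent and a 10 min room-temperature incubation. Values were normalized to vehicle (0% activity) and zero RLU (-100% activity). Reporter HEK293 cells had been exposed to compounds (up to 57.5 uM final) for 24 h.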
For the compound `O=[N+]([O-])c1ccc(S(=O)(=O)N2CCn3cccc3C2c2ccccc2F)cc1` (stereo not drawn), the “activity change, negative = inhibition” value was inactive: -24.5%.

For the compound `Cc1ccc(C)c(N2CCN(c3nc4ccc(Cl)cc4n4cnnc34)CC2)c1`, the “activity change, negative = inhibition” value was inactive: -22%.

Turning to `Cc1ccccc1OCc1nnc(SCc2cc(=O)c3ccc(C)c(C)c3[nH]2)n1C`, the “activity change, negative = inhibition” value is inactive: -0.0075%. Take `Cc1ccc(-c2cc3c(n2-c2ccc(F)cc2)CC(C)(C)CC3=O)cc1`: the “activity change, negative = inhibition” value was inactive: -4.04%. With `Cc1cccc(NC(=O)CSc2nc3ccccc3c3nc(CCc4c(C)n[nH]c4C)nn23)c1`, the “activity change, negative = inhibition” value was inactive: 0%. In the case of `CCOC(=O)c1cccc(NC(=O)CSc2nc3cc4ccccc4cc3[nH]2)c1`, the “activity change, negative = inhibition” value is inactive: -3.5%. For `CC(C)c1cnc2c(c1SCC(=O)O)c(=O)n(C)c(=O)n2C` the value was inactive: 2.12%; for `CC(=O)Nc1ccc(NC(=O)c2cnn(-c3ccccc3)c2C2CCN(C(=O)OC(C)(C)C)CC2)cc1`, inactive: -1.77%. Consider `O=C(CNC(=O)c1ccccc1F)OCc1cc(=O)n2nc(C3CC3)sc2n1`, for which the “activity change, negative = inhibition” value is inactive: -10.8%. As for `CCOc1ccccc1Nc1nnc(-c2cc3cc(Cl)ccc3oc2=O)s1`, the “activity change, negative = inhibition” value is inactive: -14.8%. For `COc1cc(OC)cc(C(=O)Nc2ccc3c(c2)OCCO3)c1`, the “activity change, negative = inhibition” value was inactive: 50.8%.

In the case of `CC(NC(=O)c1cc2ccccc2o1)c1ccccc1` (stereo not drawn), the “activity change, negative = inhibition” value is inactive: -29.1%.

`CCOc1ccc(NC(=O)CSC2=Nc3ccccc3C3=NC(Cc4ccccc4)C(=O)N23)cc1` (stereo not drawn): the “activity change, negative = inhibition” value is inactive: -29.9%.

In the case of `CCOC(=O)c1c(C)[nH]c(C)c1S(=O)(=O)N1CCCC(C(=O)Nc2cccc(C)n2)C1` (stereo not drawn), the “activity change, negative = inhibition” value was inactive: -19.5%. Regarding `COc1ccc(-c2nc3sc(CCNC(=O)C(=O)Nc4ccc(C)c(F)c4)c(C)n3n2)cc1`, the “activity change, negative = inhibition” value is inactive: -36.6%. For `CCCn1nc(NC(=O)c2cccc(Cl)c2)c2cc3cccc(C)c3nc21` the value was inactive: -7.03%. Take `CCc1ccc(S(=O)(=O)c2cn(C)c3cc(F)c(F)cc3c2=O)cc1`: the “activity change, negative = inhibition” value was inactive: -25.5%. The result for `Cc1ccc(NC(=O)Cn2c(-c3nonc3N)nc3ccccc32)cc1C` reads inactive: -1.36%; that for `COc1ccccc1CN1CCN(C2CCN(C(=O)Nc3ccccc3)CC2)C(=O)C1=O`, inactive: 15.5%. `NC(=O)C1CCCc2c1[nH]c1ccc(Cl)cc21` (stereo not drawn): the “activity change, negative = inhibition” value is inactive: -15%. For `CC(Nc1ccc(-c2nc(-c3ccco3)no2)cc1[N+](=O)[O-])c1ccccc1` (stereo not drawn), the “activity change, negative = inhibition” value was inactive: 13.3%. As for `CC(C)(C)C(=O)Nc1cccc(C(=O)OCc2cc(=O)n3nc(C4CC4)sc3n2)c1`, the “activity change, negative = inhibition” value was inactive: -11.7%.

`Cc1ccccc1NC(=O)CCNC(=O)Cn1ccc2ccccc2c1=O`: the “activity change, negative = inhibition” value is inactive: 0.579%. With `COc1cc(NC(=O)c2cc3ccc4cccnc4c3[nH]2)cc(OC)c1OC`, the “activity change, negative = inhibition” value is inactive: 12.7%. As for `CCOC(=O)c1ccc(NC(=O)CSc2nc(-c3cccs3)cc(C(F)(F)F)c2C#N)cc1`, the “activity change, negative = inhibition” value was inactive: -20.8%.

For `CCS(=O)(=O)c1nc(S(=O)(=O)c2ccc(C)cc2)c(NCC(C)C)s1`, the “activity change, negative = inhibition” value was inactive: -17.7%. For the compound `CCOC(=O)N1CCc2c(sc(NCc3sccc3C)c2C(=O)Nc2cc(Cl)ccc2OC)C1`, the “activity change, negative = inhibition” value is inactive: -13.4%. The result for `Cc1ccc(NC(=O)N2CCN(Cc3nc4ccc(C)cc4o3)CC2)c(Cl)c1` reads inactive: -32.8%. For `Cc1cc(C)n(-c2nc(C)c(C)c(=O)n2CC(=O)Nc2ccc(Cl)c(Cl)c2)n1` the value was inactive: -10.3%; for `COc1ccc(-c2nnc(SCC(=O)Nc3cccc(Cl)c3C)nc2-c2ccc(OC)cc2)cc1`, inactive: -2.2%; for `Cc1cc(C)c(NC(=O)Cn2nnc(C(=O)Nc3ccc(F)cc3F)c2N)c(C)c1`, inactive: -1.28%. `CC(=O)Nc1ccc(NC(=O)c2c(C)nn(-c3ccccc3)c2-n2cccc2)cc1`: the “activity change, negative = inhibition” value was inactive: -22.2%. As to `Cc1ccc(CNc2ncnc3c2cnn3-c2ccc(C)cc2C)cc1`, the “activity change, negative = inhibition” value was inactive: -14%. Take `Cc1ccc(CNC(=O)c2ccc3c(c2)nc2n3CCCC2)cc1`: the “activity change, negative = inhibition” value was inactive: 41.1%. In the case of `CCc1nn2c(=O)cc(COC(=O)C3CCCCC3)nc2s1`, the “activity change, negative = inhibition” value was inactive: -14.2%. With `COc1cccc(NC(=O)c2nnn(Cc3ccc(OC)c(Br)c3)c2N)c1`, the “activity change, negative = inhibition” value was inactive: -24.9%. In the case of `CCOC(=O)c1cc(-c2ccccc2)n(CCCC(=O)Nc2ccc(C)cc2Cl)c1C`, the “activity change, negative = inhibition” value was inactive: -37.9%. Turning to `COc1ccc(CNC(=O)C2CCN(S(=O)(=O)c3ccc4nc5c(c(C(=O)O)c4c3)CC(C)CC5)CC2)cc1` (stereo not drawn), the “activity change, negative = inhibition” value is inactive: -17.6%. Regarding `COc1cc(-c2noc(C3CC(=O)N(c4cc(C)ccc4C)C3)n2)cc(OC)c1OC` (stereo not drawn), the “activity change, negative = inhibition” value was inactive: -23.6%. For the compound `CCOc1ccc(NC(=O)Cn2cnc3c(oc4ccccc43)c2=O)cc1`, the “activity change, negative = inhibition” value was inactive: -5.67%. In the case of `CC(C)(C)OC(=O)N1CCC(c2c(C(=O)NCc3ccccn3)cnn2-c2ccc(F)cc2)CC1`, the “activity change, negative = inhibition” value is inactive: -10.4%.

Take `COc1ccc2c(c1)c1c(c(=O)n(-c3cccc(C)c3)c(=O)n1CC(=O)N1CCCC1)n2C`: the “activity change, negative = inhibition” value is inactive: -5.93%. As to `Cc1cc(C)c2c(=O)cc(C(=O)Nc3ccc(S(=O)(=O)Nc4onc(C)c4C)cc3)oc2c1`, the “activity change, negative = inhibition” value is inactive: 6.51%. For `Cc1ccc2c(=O)cc(C(=O)Nc3c(C(=O)c4ccccc4)oc4ccccc34)oc2c1C` the value was inactive: 9.57%; for `COC(=O)[C@H](Cc1ccccc1)NC(=O)[C@@H](N)CC(=O)O`, “inactive”; for `CCN1C(=O)c2ccccc2Sc2ccc(NC(=O)Cc3ccc(OC)cc3)cc21`, inactive: -10%. Take `COc1ccc(-c2cc(-c3ccccc3)nc3c2COc2ccccc2-3)cc1`: the “activity change, negative = inhibition” value was inactive: -4.62%. As to `CC(C)CC(=O)Nc1nnc2n1CCS2`, the “activity change, negative = inhibition” value was inactive: -5.63%.
